Laboratory results from US12286632B2, “Rationally-designed synthetic peptide shuttle agents for delivering polypeptide cargos from an extracellular space to the cytosol and/or nucleus of a target eukaryotic cell, uses thereof, methods and kits relating to same” (Feldan Bio Inc., priority 2016, dated 2025).
Like-named read-outs stand apart in the source and are kept apart here. Not every detail of the peptide structures is certain; ends, links or a residue may be inferred. Some entries repeat one wording, which the source may state once for all of them. Ends that are not written are not given here.

How the values were obtained:
B2M genomic DNA sequence = assay: T7E1 DNA cleavage assay / % INDELs after CRISPR/Cas9-NLS or CRISPR/Cpf1-NLS delivery (HeLa, THP-1, NK, T cells); format: cell-based, Human; details: CRISPR/Cpf1 1.33 μM, crRNA 2 μM; THP-1 and NK cells; different concentrations and exposure times
From the text: The T7 endonuclease I (T7E1) can be used to detect on-target CRISPR/Cas genome editing events in cultured cells. As an overview, genomic DNA from target cells is amplified by PCR. The PCR products are then denatured and reannealed to allow heteroduplex formation between wild-type DNA and CRISPR/Cas-mutated DNA. T7E1, which recognizes and cleaves mismatched DNA, is used to digest the heteroduplexes. The resulting cleaved and full-length PCR products are visualized by gel electrophoresis.
The T7E1 assay was performed with the Edit-R™ Synthetic crRNA Positive Controls (Dharmacon #U-007000-05) and the T7 Endonuclease I (NEB, Cat #M0302S). After the delivery of the CRISPR/Cas complex, cells were lysed in 100 μL of Phusion™ High-Fidelity DNA polymerase (NEB #M0530S) laboratory with additives. The cells were incubated for 15-30 minutes at 56° C., followed by deactivation for 5 minutes at 96° C. The plate was briefly centrifuged to collect the liquid at bottom of the wells. 50-μL PCR samples were set up for each sample to be analyzed. The PCR samples were heated to 95° C. for 10 minutes and then slowly (>15 minutes) cooled to room temperature. PCR product (-5 μL) was then separated on an agarose gel (2%) to confirm amplification. 15 μL of each reaction was incubated with T7E1 nuclease for 25 minutes at 37° C. Immediately, the entire reaction volume was run with the appropriate gel loading buffer on an agarose gel (2%).
Cas9-NLS recombinant protein was prepared as described in Example 13.1. Cpf1-NLS recombinant protein was prepared as described in Example G.2. A mix composed of a Cas9-NLS recombinant protein with its respective crRNAltracrRNA, or a Cpf1-NLS recombinant protein with its respective single guide crRNA(s) (see below) targeting a nucleotide sequence of the B2M gene, was co-incubated with different concentrations of the peptides FSD10, FSD18, FSD19, FSD21, FSD22, or FSD23 and incubated with HeLa, THP-1 or NK cells for 90 sec in PBS, or for 1 h in medium without serum, or for 48 h in medium with serum, using the transduction protocols as generally described in Example 3.1a. Cells were then washed with PBS and harvested to proceed with the T7E1 protocol assay as described in Example 13.4.
FIGS. 52A-52D show the results of the cleavage of the targeted genomic B2M DNA sequence after the delivery of CRISPR/Cpf1 (1.33 μM) with crRNA−1 or crRNA−2 (2 μM) in the absence (“-ctrl”) or in the presence of the peptides FSD10, FSD18, FSD19, FSD21 or FSD23 used at different concentrations, exposure times, and in different types of cells: THP-1 (FIG. 52A), and NK (FIGS. 52B, 52C, 52D), after separation by agarose gel electrophoresis. […] Gel lanes were loaded in duplicate. Thin dashed arrows indicate the bands corresponding to the target gene, and thick solid arrows indicate the bands corresponding to the cleavage products of this target gene, which indicate the successful transduction of fully functional CRISPR genome editing complexes. We used a Bio-Rad ImageLab™ software (Version 5.2.1, Bio-Rad, http://www.bio-rad.com/en-ca/product/image-lab-software?tab=Download) to quantify the relative signal intensities of each of the different bands directly on the gels. The sum of all the bands in a given lane corresponds to 100% of the signal, and the numerical value in italics at the bottom of each lane is the sum of the relative signals (%) of only the two cleavage product bands (thick solid arrows). […]

HeLa cells [1] = assay: Plasmid DNA (pEGFP-C1) transfection by peptides (% cells with GFP signal, cell viability); details: DNA transfection in HeLa cells using peptides
HeLa cells [2] = assay: GFP-NLS protein transduction assay (flow cytometry: Pos cells %, viability %, relative fluorescence intensity; microscopy); details: Table B2; HeLa cells, GFP-NLS cargo
T cells = format: cell-based, human; details: CRISPR/Cpf1-NLS 1.33 μM, crRNA 2 μM, 90 seconds, 72 hours after treatment
Method: Unless otherwise specified, T cells used herein were obtained from healthy human blood collected in heparinized tubes. T cells were isolated using a Ficoll™ technique (Ficoll-Paque™ GE or Lymphoprep™ Stem Cell Technologies). Briefly, blood was mixed with the Ficoll™ solution in conical tubes (50 mL) and centrifuged at 2280 rpm for 20 minutes. Mononuclear cells were harvested and transferred in another conical tube (50 mL) before washing with PBS and centrifugation at 1100 rpm for 10 minutes. Cells were resuspended in 5 mL of PBS containing 20% FBS. Cells were counted and then incubated in a culture medium composed by RPMI advanced (cat: 12633012 ThermoFisher), 10% FBS, 1% Penstrep (15140122 ThermoFisher), 1% L-glutamine (25030081 ThermoFisher) IL-2 30U/ml). Next, T cells were enriched with a Human T cell Enrichment Kit (StemCell #cat: 19051) by negative selection following the manufacturer instructions. The enriched T cells were validated using a specific anti-CD3 antibody (Biolegend #cat: 300438). At this step, collected cells were typically around 99% T cells. T cells were activated by adding IL-2 at 30 U/mL and the anti-CD28 antibody (ThermoFisher #cat: 16-0289-85) in complete medium for 5 days prior to experimentation. The activation of T cell expansion was then double-checked with both anti-CD25 and anti-CD137 antibodies.
A mix composed of a Cpf1-NLS recombinant protein with respective single guide crRNA(s) targeting a nucleotide sequence of the B2M gene was co-incubated with different concentrations of FSD21 or FSD18 peptide shuttle agents and incubated with T cells for 90 seconds in PBS using the transduction protocols as generally described in Example 3.1a. Each of the B2M crRNAs were designed to mediate CRISPR/Cpf1-based cleavage of the B2M gene, the phenotypic effects of which can be seen by the disruption of cell surface HLA, which is detectable by flow cytometry using a fluorescent APC Mouse Anti-Human HLA-ABC antibody.
The cells were then resuspended in 100 μL PBS containing 1% FBS and 4 μL of APC Mouse Anti-Human HLA-ABC antibody before an incubation period of 20 minutes, in the dark, at ambient temperature. Then, 1 mL of PBS containing 1% FBS was added to the suspension followed by a 1200 rpm centrifugation of 5 minutes. Finally, the pellet was resuspended in 100 to 200 μL of PBS containing 1% FBS before flow cytometry analysis.

THP-1 cells [3] = assay: GFP-NLS protein transduction assay (flow cytometry: Pos cells %, viability %, relative fluorescence intensity; microscopy); details: THP-1 cells, GFP-NLS 10 μM
THP-1 cells [4] = assay: HOXB4-WT transduction: target gene mRNA by real-time PCR (Fold over control) and total RNA (ng/μL) as marker for cell viability; format: cell-based, human; details: THP-1 cells; peptide alone 1 μM, HOXB4-WT 0 μM; target gene mRNA by real time-PCR
Method: Control and treated cells are transferred to separate sterile 1.5-mL tubes and centrifuged for 5 minutes at 300g. The cell pellets are resuspended in appropriate buffer to lyse the cells. RNAase-free 70% ethanol is then added followed by mixing by pipetting. The lysates are transferred to an RNeasy™ Mini spin column and centrifuged 30 seconds at 13000 RPM. After several washes with appropriate buffers and centrifugation steps, the eluates are collected in sterile 1.5-mL tubes on ice, and the RNA quantity in each tube is then quantified with a spectrophotometer. For DNase treatment, 2 μg of RNA is diluted in 15 μL of RNase-free water. 1.75 μL of 10X DNase buffer and 0.75 μL of DNase is then added, followed by incubation at 37° C. for 15 minutes. For reverse transcriptase treatment, 0.88 μL of EDTA […] is added, followed by incubation at 75° C. for 5 minutes. In a PCR tube, […] of DNase-treated RNA is mixed with 4 μL of iScript™ Reverse transcription Supermix (5X) and […] of nuclease-free water. The mix is incubated in a PCR machine with the following program: 5 min at 25° C., 30 min at 42° C. and 5 min at 85° C. Newly synthesized cDNA is transferred in sterile 1.5-mL tubes and diluted in 2 μL of nuclease-free water. 18 μL per well of a qPCR machine (CFX-96™) mix is then added in a PCR plate for analysis.
Briefly, THP-1 cells were plated at 30 000 cells/well one day before transduction. […] The cells were subjected to real time-PCR analysis as described in Example 14.2 to measure the mRNA levels of a target gene as a marker for HOXB4 activity, which was then normalized to the target gene mRNA levels detected in the negative control cells (no treatment), to obtain a “Fold over control” value. Total RNA levels (ng/μL) were also measured as a marker for cell viability.
Briefly, THP-1 cells were plated at 30 000 cells/well one day before the first time course experiment. […] The cells were subjected to real time-PCR analysis as described in Example 14.2 to measure mRNA levels of a target gene as a marker for HOXB4 activity, which was then normalized to the target gene mRNA levels detected in the negative control cells (no treatment), to obtain a “Fold over control” value. Total RNA levels (ng/μL) were also measured as a marker for cell viability.
Briefly, THP-1 cells were plated at 30 000 cells/well one day before the first time course experiment. […] The cells were subjected to real time-PCR analysis as described in Example 14.2 to measure mRNA levels of a target gene as a marker for HOXB4 activity, which was then normalized to target gene mRNA levels detected in the negative control cells (no treatment), to obtain a “Fold over control” value. Total RNA levels (ng/μL) were also measured as a marker for cell viability. […]

| Sequence | delivery of CRISPR/Cpf1 complex, cleavage of genomic B2M (in words) (B2M genomic DNA sequence) | Mean % cells with GFP signal (±St. Dev.; n = 3) (HeLa cells [1]) | Mean % cells with GFP signal (±St. Dev.; n = 3) (HeLa cells [2]) | HLA-negative cells (T cells; peptide 8 μM) | HLA-negative cells (T cells; peptide 10 μM) | HLA-negative cells (T cells; peptide 12 μM) | Mean % cells with GFP signal (±St. Dev.; n = 3) (THP-1 cells [3]; peptide 2 μM, incubation 0.5 min) | Mean % cells with GFP signal (±St. Dev.; n = 3) (THP-1 cells [3]; peptide 5 μM, incubation 0.25 min) | Fold over control (mean ± St. Dev) (THP-1 cells [4]) |
| --- | --- | --- | --- | --- | --- | --- | --- | --- | --- |
| HHHHHHFLKIWSRLIKIWTQGRRKGAQAAFR [FSD21] | successful delivery of the CRISPR genome-editing complexes to the nucleus | 0.01 ± 0.00% | 46.74 ± 4.03% | 9.87% | 8.68% | 12.2% | 47.1 ± 3.83% | 57.3 ± 4.52% |  |
| KWKLARAFARAIKKLGGSGGGSYARALRRQARTG [FSD10 alone] |  |  |  |  |  |  |  |  | 1.1 ± 0.14 |
| LLKLWSRLLKLWTQGGSGGGSGRRLKAKRAKA [FSD18 alone] |  |  |  |  |  |  |  |  | 1.5 ± 0.09 |
